Measured values reported in the RNAGym collection of RNA variant scans (doi:10.1073/pnas.2313332121).
Variants at the floor of the assay are shown more often than the library holds them.

B1: TPR 5TU (parent)
chain: GGAUCUUCUCGAUCUAACAAAAAAGACAAAUCUGCCACAAAGCUUGAGAGCAUCUUCGGAUGCAGAGGCGGCAGCCUUCGGUGGCGCGAUAGCGCCAACGUUCUCAACUAUGACACGCAAAACGCGUGCUCCGUUGAAUGGAGUUUAUCAUG

Variants of: B1
Assay: polymerase ribozyme fitness, log enrichment relative to wild type (log ratio); higher = more active; in vitro selection for triplet polymerase activity
Method in brief: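 PCR was used to build mutant libraries for each subunit of a heterodimeric triplet polymerase ribozyme, which were then transcribed. A single in vitro selection round, in triplicate, used a frozen incubation at −7 °C and recovered extended constructs by gel excision, streptavidin beads and RT-PCR. Fitness is the logarithm of genotype enrichment relative to wild-type enrichment, averaged over replicates with inverse-variance weights. The logarithm is base 2, and after Illumina sequencing only genotypes with ≥10 input reads and ≥1 read per output were kept.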

For A20U C75G C93U C95U A98G, which “polymerase ribozyme fitness (log ratio)” value is on record?
The value was at most -4.2.

Which “polymerase ribozyme fitness (log ratio)” value does the source give for A20U U78A G80U A91U C105U A119U U135A G140U U145G here?
The value was at most -4.2.

Which “polymerase ribozyme fitness (log ratio)” value does the source give for A20U C27U A40U G62A U77C C79G C87U C123U here?
The value was at most -4.2.

Which “polymerase ribozyme fitness (log ratio)” value does the source give for A20U U31G U55A A73G C85G C87G U135C U148C here?
The value was at most -4.2.

For A21C A24G A28G A29U A40C A52C C96A C116U, which “polymerase ribozyme fitness (log ratio)” value is on record?
The value was at most -4.2.

With A20U A22U G59A A66C C72G A89U C95A as the variant, how does the “polymerase ribozyme fitness (log ratio)” value read?
The value was at most -4.2.

With A20U A39U C51G A66C C93G U134A as the variant, how does the “polymerase ribozyme fitness (log ratio)” value read?
Its value is at most -4.2.

With A20U C38G A91G C99G A147C as the variant, how does the “polymerase ribozyme fitness (log ratio)” value read?
Its value is at most -4.2.

Which “polymerase ribozyme fitness (log ratio)” value does the source give for A20U A40C G80U G83A C99U G133U A142G U145C here?
Its value is at most -4.2.

With A20U A28U A64C C79U C93A C114U as the variant, how does the “polymerase ribozyme fitness (log ratio)” value read?
Its value is at most -4.2.

With A20U U53A G71A A91U A98G A120C G141U as the variant, how does the “polymerase ribozyme fitness (log ratio)” value read?
The value was at most -4.2.

With A20U A39G U102A A115G as the variant, how does the “polymerase ribozyme fitness (log ratio)” value read?
Its value is at most -4.2.

Which “polymerase ribozyme fitness (log ratio)” value does the source give for A20U U56G G65A C76U C85A G141C U148C here?
The value was at most -4.2.

Which “polymerase ribozyme fitness (log ratio)” value does the source give for A20U C32G A39U A41C G70A C87U A122C G136C here?
Its value is at most -4.2.

Which “polymerase ribozyme fitness (log ratio)” value does the source give for A21C A22U C54U A73G A89G here?
The value was -1.48.

For A20U A29G A52G A89U C96A, which “polymerase ribozyme fitness (log ratio)” value is on record?
The value was at most -4.2.

With A20U C38U G100A G140U G143A as the variant, how does the “polymerase ribozyme fitness (log ratio)” value read?
The value was at most -4.2.

Which “polymerase ribozyme fitness (log ratio)” value does the source give for A20U C38U C75A C87G A107U C132U here?
The value was at most -4.2.

Which “polymerase ribozyme fitness (log ratio)” value does the source give for A20U C57U G68A C72U G92A here?
Its value is at most -4.2.

With A20U A22U A52C G67A U127A as the variant, how does the “polymerase ribozyme fitness (log ratio)” value read?
Its value is at most -4.2.

For A20U A52C C76G A91C G100C A115U U139G, which “polymerase ribozyme fitness (log ratio)” value is on record?
Its value is at most -4.2.

For A20U G70A G81C A89G U127C G143U, which “polymerase ribozyme fitness (log ratio)” value is on record?
Its value is at most -4.2.

Which “polymerase ribozyme fitness (log ratio)” value does the source give for A20U C54U G133U A138C here?
The value was at most -4.2.

For A20U A113U, which “polymerase ribozyme fitness (log ratio)” value is on record?
The value was -3.74.

For A20U U53A C87U A89C G92C, which “polymerase ribozyme fitness (log ratio)” value is on record?
The value was at most -4.2.

Which “polymerase ribozyme fitness (log ratio)” value does the source give for A20U A37C G58A A91G C93G A142C here?
Its value is at most -4.2.

For A20U G65C C85U A106U, which “polymerase ribozyme fitness (log ratio)” value is on record?
The value was at most -4.2.

Which “polymerase ribozyme fitness (log ratio)” value does the source give for A20U A52G C54A G80U A110U here?
The value was at most -4.2.

For A20U G83C G92A U127A G128U, which “polymerase ribozyme fitness (log ratio)” value is on record?
The value was at most -4.2.

With A20U A40C G50C G94C U104A C118U as the variant, how does the “polymerase ribozyme fitness (log ratio)” value read?
The value was at most -4.2.

Which “polymerase ribozyme fitness (log ratio)” value does the source give for A20U G48A G84A G152C here?
The value was at most -4.2.

Which “polymerase ribozyme fitness (log ratio)” value does the source give for A20U G68A C76U C87G here?
The value was at most -4.2.

Which “polymerase ribozyme fitness (log ratio)” value does the source give for A20U A28U A39U G83A G141A here?
Its value is -4.1.

With A20U U31C A41C C51A as the variant, how does the “polymerase ribozyme fitness (log ratio)” value read?
Its value is -2.21.

With A20U C32U A49U U55G G65C G88A G128U as the variant, how does the “polymerase ribozyme fitness (log ratio)” value read?
The value was at most -4.2.

Which “polymerase ribozyme fitness (log ratio)” value does the source give for A20U A41C G50A G141A here?
The value was -4.03.

With A20U A37C U56A G88A U102G A122C U144A as the variant, how does the “polymerase ribozyme fitness (log ratio)” value read?
The value was at most -4.2.

Which “polymerase ribozyme fitness (log ratio)” value does the source give for A20U G84A G86C U90C U148A here?
The value was at most -4.2.

For A20U C32A G50A C93G, which “polymerase ribozyme fitness (log ratio)” value is on record?
Its value is at most -4.2.

With A20U U101A as the variant, how does the “polymerase ribozyme fitness (log ratio)” value read?
Its value is -2.4.

Which “polymerase ribozyme fitness (log ratio)” value does the source give for A20U U45A G48U A64G A137U here?
The value was at most -4.2.

With A21C A22U A52G U55A G86C C87A U144G as the variant, how does the “polymerase ribozyme fitness (log ratio)” value read?
The value was at most -4.2.

With A20U A30C C72U A91G G92A U146C as the variant, how does the “polymerase ribozyme fitness (log ratio)” value read?
The value was at most -4.2.

For A20U A29U G71U G84A, which “polymerase ribozyme fitness (log ratio)” value is on record?
Its value is at most -4.2.

For A20U G48U G65A A91C G92A A120G A121U U130A, which “polymerase ribozyme fitness (log ratio)” value is on record?
The value was at most -4.2.

For A20U A39G C54G U61C C132A, which “polymerase ribozyme fitness (log ratio)” value is on record?
The value was at most -4.2.

With A20U G67U C116G as the variant, how does the “polymerase ribozyme fitness (log ratio)” value read?
Its value is at most -4.2.

Which “polymerase ribozyme fitness (log ratio)” value does the source give for A20U C43U U53C C54U A89U A91C G92U here?
The value was at most -4.2.

With A20U C57U A60C A98G C116U G117U U134A as the variant, how does the “polymerase ribozyme fitness (log ratio)” value read?
The value was at most -4.2.

For A20U A26U A52C C57G, which “polymerase ribozyme fitness (log ratio)” value is on record?
Its value is at most -4.2.

For A20U A30C A89U G92A C116U U145G, which “polymerase ribozyme fitness (log ratio)” value is on record?
Its value is at most -4.2.

Which “polymerase ribozyme fitness (log ratio)” value does the source give for A20U C36G G70A here?
Its value is -4.1.

For A20U C27G A30U A37U A60C C76A G88A G94A C99G, which “polymerase ribozyme fitness (log ratio)” value is on record?
The value was at most -4.2.

For A20U C93A C125G A138C, which “polymerase ribozyme fitness (log ratio)” value is on record?
The value was at most -4.2.

For A20U A30C G86U G140U, which “polymerase ribozyme fitness (log ratio)” value is on record?
Its value is at most -4.2.

Which “polymerase ribozyme fitness (log ratio)” value does the source give for A20U A40C G80C C93U A110U here?
The value was at most -4.2.

With A20U C35U C95A A97G C99A C105U A138G as the variant, how does the “polymerase ribozyme fitness (log ratio)” value read?
The value was at most -4.2.

Which “polymerase ribozyme fitness (log ratio)” value does the source give for A20U G50C U78A C93A A110C U145A here?
Its value is at most -4.2.

With A20U G50C U78A C93A A110C U145C as the variant, how does the “polymerase ribozyme fitness (log ratio)” value read?
Its value is at most -4.2.

For A21C A24U G46U C57U C93U, which “polymerase ribozyme fitness (log ratio)” value is on record?
The value was -1.65.

Which “polymerase ribozyme fitness (log ratio)” value does the source give for A20U U45G C79G G84A here?
The value was at most -4.2.

With A20U U33C G71A U104A A106G A107G A137C as the variant, how does the “polymerase ribozyme fitness (log ratio)” value read?
The value was at most -4.2.

With A21C A22U A89U G92C G94U G141A as the variant, how does the “polymerase ribozyme fitness (log ratio)” value read?
The value was at most -4.2.

Which “polymerase ribozyme fitness (log ratio)” value does the source give for A21C A26U C57U C93A C116U G141U A147U here?
The value was at most -4.2.

With A20U G48C A60C C85A U148G as the variant, how does the “polymerase ribozyme fitness (log ratio)” value read?
The value was at most -4.2.

With A20U A39C G48A G94A as the variant, how does the “polymerase ribozyme fitness (log ratio)” value read?
The value was at most -4.2.

With A20U C96U U101A U102A as the variant, how does the “polymerase ribozyme fitness (log ratio)” value read?
The value was at most -4.2.

Which “polymerase ribozyme fitness (log ratio)” value does the source give for A20U A40G C63G G81C A113U A115C A138G here?
Its value is at most -4.2.

For A20U U33C G71C G92U C96G A119U C125A, which “polymerase ribozyme fitness (log ratio)” value is on record?
Its value is at most -4.2.

Which “polymerase ribozyme fitness (log ratio)” value does the source give for A20U U55A A147C here?
Its value is -2.31.

For A20U C57U G59U G62U C76U C96G A147G, which “polymerase ribozyme fitness (log ratio)” value is on record?
Its value is at most -4.2.

Which “polymerase ribozyme fitness (log ratio)” value does the source give for A20U C27G A28G G50A C93G G152U here?
Its value is at most -4.2.

With A20U C76A C93A U101C U104G G141C C149G G152C as the variant, how does the “polymerase ribozyme fitness (log ratio)” value read?
The value was at most -4.2.

For A20U A60U G68C C76A C96A G100A U145A U151C, which “polymerase ribozyme fitness (log ratio)” value is on record?
The value was at most -4.2.

For A20U U56G C85A G88U G100U C105G C118G, which “polymerase ribozyme fitness (log ratio)” value is on record?
Its value is at most -4.2.

For A20U U61G C87U C95U, which “polymerase ribozyme fitness (log ratio)” value is on record?
Its value is -3.33.

With A20U C27U A49C A64C U134A U135C A137U as the variant, how does the “polymerase ribozyme fitness (log ratio)” value read?
Its value is at most -4.2.

Which “polymerase ribozyme fitness (log ratio)” value does the source give for A20U G42C A64C G94C G126U here?
Its value is at most -4.2.

Which “polymerase ribozyme fitness (log ratio)” value does the source give for A20U C36A U61A C93U here?
The value was at most -4.2.

Which “polymerase ribozyme fitness (log ratio)” value does the source give for A20U A49C G50C G92U U146G C149U here?
The value was at most -4.2.

With A20U A40G G84U U148C as the variant, how does the “polymerase ribozyme fitness (log ratio)” value read?
Its value is at most -4.2.

With A20U C93G C103A A113G C114G G140U as the variant, how does the “polymerase ribozyme fitness (log ratio)” value read?
The value was at most -4.2.

Which “polymerase ribozyme fitness (log ratio)” value does the source give for A20U A47G G50U C85G here?
The value was -3.77.

Which “polymerase ribozyme fitness (log ratio)” value does the source give for A20U A41C G48A C87G A113U G141U here?
Its value is at most -4.2.
